Measurements: ChEMBL document CHEMBL4888484, “Replenishing the malaria drug discovery pipeline: Screening and hit evaluation of the MMV Hit Generation Library 1 (HGL1) against asexual blood stage Plasmodium falciparum ,using a nano luciferase reporter read-out” (2022)
The whole screen tested about 150,000 compounds, of which about 540 (0.36%) showed an effect of 50% or more. Some of the results follow.

tested on: Plasmodium falciparum; test: Primary screen in NF54 nanoGlo assay, in single point, at 2uM, 72h; a lower Z score goes with more inhibition; format: functional, Erythrocyte; conditions: timepoint 72 hour

Compound	% Inhibition	Z score
CCCn1cnnc1CNS(=O)(=O)c1ccc(-c2c(C)noc2C)s1	1%	-0.16
N#CC1(C#N)C(C(N)=O)C1c1ccccc1Cl (stereo not drawn)	2%	-0.41
Cc1nn(CCN2CCC(C#N)CC2)cc1CNCc1ccccc1	-2%	0.37
O=S(=O)(Oc1cc(Cl)ccc1-c1nc2ccccc2o1)c1cccc(Cl)c1Cl	-14%	2.07
Cc1cc(=O)cc(O)n1CCc1noc(C2CC2)n1	-6%	1.06
CC(=O)N1CCC(C(=O)Nc2cccc3ccccc23)CC1	6%	-1.27
Cc1ccccc1N1CC[C@H](CNC(=O)C2CCN(Cc3ccco3)CC2)C1	-4%	0.56
CC(C)n1cc(-c2cn(C[C@H]3CCC4(COC4)O3)nn2)cn1	-5%	0.93
CCCCN1CCS(=O)(=O)c2c(Cl)c(N3CCN(CC)CC3)nc(Oc3ccc(C#N)cc3)c21	3%	-0.54
O=C1C[C@@H](c2ccccc2)N(S(=O)(=O)c2ccc(C(F)(F)F)cc2)CCN1	8%	-1.29
CCC(CC)C(=O)Nc1cc(C)ccc1O	2%	-0.28
Cc1ccc(NC(=O)Cn2cccc(S(=O)(=O)N3CCCCCC3)c2=O)cc1C	1%	-0.21
Cc1oc2ncnc(NC(=O)c3cccnc3)c2c1C	-7%	0.94
Cc1ccc(CC(C)NC(=O)CCC2CCCO2)s1 (stereo not drawn)	-17%	2.71
Cc1c(Br)cccc1CCNC(=O)[C@@H]1CN(C)C(=O)N1	-9%	1.2
COc1ccccc1NC(=O)[C@H]1CCCN(S(=O)(=O)Cc2ccccc2C)C1	14%	-1.8
O=C(C1CC12CCc1ccccc12)N1CCCC(n2ccnn2)C1 (stereo not drawn)	-5%	0.96
COc1ccc(Cn2nnc3ccccc3c2=O)cn1	-12%	1.37
COc1ccc(CN2C[C@H]3CC[C@@H](C2)N(C(=O)c2ccc(N)nc2)C3)cc1	5%	-1.02
c1ccc(-c2nc(N3CCN(CC4CC4)CC3)no2)cc1	-8%	0.89
COCC(C)(C)N1CCN(S(=O)(=O)N2CCc3ccccc3C2)CC1	0%	-0.01

Compound	% Inhibition	Z score
O=C(NCc1ccncc1)c1cc(Br)c[nH]1	-12%	1
CC(C)c1noc(Cc2ccc(NS(=O)(=O)C3CC3)cc2)n1	-12%	1.25
Cc1cc2nn(CC(=O)Nc3cc(F)cc(F)c3)c(=O)n2c(Nc2ccc(C)c(F)c2)n1	-10%	1.11
C[C@H]1CN(c2cc(Cl)ccc2Cl)CCN1C(=O)c1cc[nH]c(=O)c1	-1%	0.29
CNC(=O)C[C@H](C)N(C)C(=O)Cc1c(F)cccc1Cl	-7%	1.02
C=CCNC(=O)N[C@H](CCO)c1ccccc1	1%	-0.24
CC(=O)N1Cc2ccccc2C[C@H]1C(=O)N1CCc2cnccc21	-3%	0.35
CN1CCCCC[C@H]1C(=O)NC1(CO)CCCC1	-4%	0.61
COc1ccc(C(C)NCC2(O)CCOC2)c(Br)c1 (stereo not drawn)	-10%	1.42
CN[C@@H](C(=O)N(C)Cc1ccc(OC)c(C)c1)c1cnn(C)c1	0%	-0.05
Cc1cc(CN[C@@H](C)CN(C)C(C)C)cnc1C	-10%	1.45
Cc1nn(CC2CC2)c(=O)n1CC(F)(F)F	-31%	4.58
CCc1[nH]nc(NC(=O)c2cscn2)c1C	-13%	2.09
COc1ccc(CNc2nc(NCc3ccc(OC)c(OC)c3)n(C(=O)c3ccncc3)n2)cc1OC	3%	-0.33
COc1cccc(CNC(=O)C(=O)NC[C@H](O)c2cccc3ccccc23)c1	-11%	1.84
Cc1cc(C)n(-c2nc3c(c(=O)n2CC(=O)N2CCCCC2)CCCC3)n1	-4%	0.56
CCOC(=O)c1cc(S(=O)(=O)N2CCC[C@H]2C(=O)Nc2ccc(OCC)cc2)cn1C	-2%	0.44
CN(C)C(=O)OCCOc1cccc(Cl)c1C#N	-11%	1.07
Cn1nc(C2CCN(C(=O)c3ccccc3)CC2)c2c1CCOC2	-6%	0.82
O=C1CN(C(=O)Nc2ccc(-c3cc[nH]n3)cc2)C2CCCCC2N1 (stereo not drawn)	30%	-3.45
CN(C(=O)CCC(=O)Nc1cccc(O)c1)[C@H](c1ccccn1)C1CC1	0%	0.08

Compound	% Inhibition	Z score
CCCC(=O)N1CC2(CCN(C(=O)OC(C)(C)C)CC2)[C@@H]2COC[C@@H]21	3%	-0.6
CCN1CC2(CCN(C(=O)Cc3c(F)ccc(Cl)c3F)CC2)CC1=O	-16%	2.08
CCc1cnccc1C(=O)N(c1cc(C)ccc1C)C1CCOCC1	4%	-0.83
Cc1c(NC(=O)N2CCN([C@H]3CCCC[C@@H]3O)CC2)cccc1N1CCCC1	-20%	3.76
CCS(=O)(=O)N1CCN(c2noc(-c3ccccc3)n2)CC1	-2%	0.36
Cc1cc(C)n(CC(=O)N2CC(F)(F)C[C@H]2c2nncn2Cc2ccc(F)cc2)n1	1%	-0.17
O=C1CC[C@H](C(=O)NC2(c3cc(C(F)(F)F)ccc3Cl)CC2)N1	-8%	0.78
COc1ccc(Cl)cc1N1CCN(c2ncc(C(=O)NCCCN3CCOCC3)c(OC)n2)CC1	-8%	0.77
N#CCN1CCc2c1cccc2C(F)(F)F	-7%	0.76
COC(=O)c1cnc(N2CCCCC2)cc1N1CCCCC1	-5%	0.71
O=C(NC[C@H](NC(=O)c1cccnc1)C1CC1)c1cccnc1	-15%	2.84
CCOC(=O)c1c(CC)nn2c1N[C@H](c1ccc(Cl)cc1)C2	2%	-0.28
Cc1cccc(C)c1C(=O)Nc1ccc2ccn(C)c(=O)c2c1	-3%	0.64
O=C(CC1CCOCC1)Nc1cnccn1	4%	-0.41
CCn1cc(C2OCCC2CNC(C)c2nc(C)no2)cn1 (stereo not drawn)	-5%	0.51
CCc1ncnc(O[C@H]2CCN(C(=O)Cc3ccc4c(c3)OCO4)C2)c1F	-2%	0.29
Cc1cc(Br)cn2c(CNc3ncc(C(F)(F)F)s3)cnc12	-3%	0.45
COc1cccc(C(=O)Nc2nc(=S)ss2)c1	10%	-1.39
COCCC1(CNS(=O)(=O)c2cccnc2)CCCC1	-10%	1.06
COc1cccc(N2CCN(C3=NC(=O)[C@@H](C#N)C4(CCCC4)N3)CC2)c1	31%	-0.27
O=C(Nc1ccc(OC(F)(F)C(F)F)c(NC(=O)NC2CCCCC2)c1)NC1CCCCC1	7%	-0.79

Compound	% Inhibition	Z score
Cc1ccc(-c2csc(NCc3ccccc3)[n+]2Cc2ccccc2)cc1	-9%	1.56
Cc1cc(=O)c(C(=O)N2CCN(Cc3ccccc3)CC2)c(CC2CCCC2)n1Cc1cccnc1	-8%	1.11
CC(C)c1noc([C@H](C)NC(=O)CCCCc2ccccc2)n1	-12%	1.25
CC[C@@](C)(C(=O)Nc1ccc(N2CCOCC2)cc1)N(Cc1ccccc1F)C(=O)Cc1ccccc1	1%	-0.16
Cc1[nH]cnc1CC(=O)N1CCOC[C@H]1C1CCC1	5%	-0.65
CC(C)NC(=O)N1CCCCC[C@@H]1CN1CCCC1	-2%	0.28
Cc1ccc([C@@H]2CCCCCN2S(C)(=O)=O)s1	-7%	0.97
CC1CCN(C(=O)OC(C)(C)C)CCC1NCC(=O)NCC1CC1 (stereo not drawn)	2%	-0.19
CC[C@@H](C)[C@H](NC(=O)[C@H]1CC[C@H](Cn2c(=O)[nH]c3ccccc3c2=O)CC1)C(=O)O	4%	-0.55
CCC(=O)N(Cc1ccc(C)cc1)c1ccc(CC(=O)NC(C)C)cc1	-14%	1.31
Cc1c(NC(=O)c2noc3c2CCc2ccccc2-3)c(=O)n(-c2ccccc2)n1C	-14%	1.62
COCCN(CC(C)C)C(=O)Nc1ccc(Cl)cc1C	4%	-0.57
CC(C)(NC(=O)c1cn(Cc2ccc(Cl)cc2)nn1)c1cn(Cc2ccc(Cl)cc2)nn1	-4%	0.47
Cc1noc2ncnc(N3CCc4cc(Cl)ccc4C3)c12	-10%	1
O=C1CC[C@@H](c2c(-c3ccc4ccccc4c3)[nH]c3ccccc23)N1Cc1ccccc1	32%	-3.61
Cc1ccc(CNC(=O)N[C@@H](C)c2nc[nH]n2)c(OC2CCCC2)c1	-11%	1.46
Cc1cc(C(F)(F)F)cc(N2Cc3cnc(CC(C)C)nc3C2)n1	0%	-0.06
O=C(Nc1ccccc1F)C1CCN(S(=O)(=O)c2ccc3c(c2)CCCN3C(=O)C2CCC2)CC1	-7%	1.3
O=C(c1ccc(Cl)cc1)c1cnc2n1CCC2	-1%	0.13
Cc1nc(N2CCC(C(=O)N3CCC(O)(c4cccc(C(F)(F)F)c4)CC3)CC2)nc2ccccc12	-16%	2.09
N#Cc1cccc(-c2cn([C@H](CO)Cc3ccc(Cl)cc3)nn2)c1	-1%	0.17
